# Laboratory results: PubChem BioAssay AID504832 (National Center for Advancing Translational Sciences (NCATS), 2011)
# About 18,000 (5.8%) of roughly 310,000 compounds were called active. The shares of active, inactive and inconclusive entries below differ from those in the screen. The call rests on the fitted dose curve; in most records, active means well fitted inhibition curve with a large enough effect; inconclusive means small, poorly fitted or top-dose-only effect, or another doubt; inactive means no such curve, though single readings can be large or run the other way. Potencies of inconclusive entries are left out as doubtful fits.
# Assay: Primary qHTS for delayed death inhibitors of the malarial parasite plastid, 48 hour incubation
# Settings: P. falciparum luciferase growth in erythrocytes; series mostly up to 28.7 µM; activity change, negative = inhibition: at the top concentration
# How it was run: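 Here the parasites carry a stable luciferase gene and grow inside erythrocytes in Albumax-based RPMI medium with compound for one erythrocytic cycle. Activity is scored as loss of luminescent signal.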
# On the % scale 0 is the no-effect control and ±100 the full control effect; potency means the concentration at half of the fitted maximal effect; tags describe the fitted curve by direction and shape.
SMILES,Potency,"activity change, negative = inhibition"
O=S(=O)(c1ccc(S(=O)(=O)N2CCC3(CC2)OCCO3)cc1)N1CCCC1,"inconclusive [inhibitor, single point]",–
CC(=O)Nc1ccc(N2CCCCC2)c(C(=O)Nc2cccc(C)c2)c1,"inconclusive [inhibitor, single point]",–
CCn1cc(C(=O)N2CCCC(N3CCN(c4cccc(C(F)(F)F)c4)CC3)C2)cn1 (stereo not given),"inconclusive [inhibitor, single point]",–
CCC(C)NCCOCCOc1ccccc1-c1ccccc1 (stereo not given),"inconclusive [inhibitor, partial curve]",–
C/C(=N\NC(=O)CCCNc1ccc(C)cc1)c1ccccn1,"inconclusive [inhibitor, single point]",–
COC(=O)C1=C(C)N(CCc2ccccc2)C(=O)C1(NS(=O)(=O)c1ccc(NC(C)=O)cc1)C(F)(F)F (stereo not given),"inconclusive [inhibitor, single point]",–
Cc1nn(-c2ccccc2)nc1C(=O)NNC(=O)c1ccc(C(F)(F)F)cc1,–,inactive: 5.78%
O=C(COc1ccc(Cl)cc1)Nc1ccc2c(c1)C(=O)NC2=O,–,inactive: 22.2%
COC(=O)c1ccc(/C=N/Nc2nc3ccccc3[nH]2)cc1,"inconclusive [inhibitor, full curve, poor fit]",–
O=[N+]([O-])c1ccc(C2OCCO2)cc1CS(=O)(=O)c1ccccc1,–,inactive: 5.41%
COCc1ccc(C(=O)NC2CC(C)(C)Cc3c2cnn3-c2ccc(C)cc2)o1 (stereo not given),"inconclusive [inhibitor, partial curve, poor fit]",–
O=C(O)Cc1ccc(O)c(F)c1,–,inactive: -4.69%
Cc1ccc(S(=O)(=O)N(C(=N)N)c2nc(N(C)C)nc(N(C)C)n2)cc1,"inconclusive [inhibitor, single point]",–
Cc1ccc(C(=O)Nc2ccccn2)cc1S(=O)(=O)N1CCOCC1,–,inactive: 22.4%
O=C(CN1CCN(c2ccc(F)cc2)CC1)Nc1ccccc1[N+](=O)[O-],–,inactive: -29.9%
NC(=O)C1CCCN(CC(=O)N2CCN(c3ccccc3)CC2)C1 (stereo not given),–,inactive: 21.6%
CCc1ccc(-n2ccc(=O)c(C(=O)O)n2)cc1,–,inactive: 17.6%
Cc1cc(C)nc(N2Cc3ccccc3C2=N)n1,active: 14.7 µM,–
Brc1cccc(CNCC2CCCO2)c1 (stereo not given),–,inactive: 35.4%
c1ccc(C(c2ccccc2)N2CCN(c3nc4ccccc4n4cnnc34)CC2)cc1,active: 1.85 µM,–
COCCCn1c(=O)c2sccc2n2c(CCCC(=O)NCc3ccccc3OC)nnc12,–,inactive: -23.9%
Cc1nn(C)c(Oc2ccccc2)c1CCNC(=O)CCl,"inconclusive [inhibitor, single point]",–
Cc1c(CC(=O)NCCCC(=O)O)c(=O)oc2cc3c(cc12)CCC(C)(C)O3,active: 2.62 µM,–
COc1cc(C2NC(=O)NC(c3ccccc3)=C2C(C)=O)c(Br)c(Br)c1O (stereo not given),active: 1.31 µM,–
CCc1cccc(CC)c1NC(=O)CN1CC(C)SC1=NC1CCCCC1 (stereo not given),"inconclusive [inhibitor, single point]",–

SMILES,Potency,"activity change, negative = inhibition"
CC1=C([N+](=O)[O-])C(c2ccc3c(c2)OCO3)N(C)C(=O)N1C (stereo not given),"inconclusive [inhibitor, partial curve, poor fit]",–
CS(=O)(=O)c1ccccc1-c1nc(-c2ccc(C(F)(F)F)cc2)no1,–,inactive: -5.26%
COC(=O)c1c(NC(=O)COC(=O)CC(NC(C)=O)c2ccccc2)sc(C)c1C (stereo not given),–,inactive: -15.1%
COc1ccc(NC(C)=O)cc1NC(C)C(=O)Nc1cc(C(F)(F)F)ccc1N1CCOCC1 (stereo not given),active: 3.7 µM,–
CCc1noc(C)c1C(=O)Nc1ncc(C)s1,–,inactive: 54.2%
NCCCn1c(C(=O)c2cc(Cl)c(N)c(Cl)c2)c2ccccc2[n+]1[O-],"inconclusive [inhibitor, single point]",–
O=C(NCc1cccnc1)Nc1cccc(F)c1,–,inactive: 3.91%
COc1ccc(CCC(=O)NCc2cn3ccccc3n2)cc1,–,inactive: -15.1%
CC(=O)c1cn(Cc2ccc(F)cc2)c2ccccc12,"inconclusive [inhibitor, partial curve, poor fit]",–
COc1ccccc1/C=C/C1(C(=O)NC2CCCC2)CC(=O)N1c1ccccc1 (stereo not given),"inconclusive [inhibitor, single point]",–
NCCCCCc1cn(CC(=O)NCCCCCCCCCCC(=O)N2CCNCC2)nn1,–,inactive: -17.3%
COc1ccc2c(c1)/C(=C/c1cnc[nH]1)C(=O)N2,"inconclusive [inhibitor, full curve]",–
CCN(CC)c1ccc(C(=O)NN)cc1,–,inactive: 8.98%
COc1ccc(C(C)=O)cc1COC(=O)Cc1n[nH]c(=O)c2ccccc12,"inconclusive [inhibitor, partial curve]",–
CCOC(=O)CSc1nnc(Cc2ccccc2)n1Cc1ccco1,–,inactive: -6.3%
O=C1CC[C@@H](C(=O)O)N1,"inconclusive [inhibitor, single point]",–
C=CCn1c(Cc2cccs2)nnc1SC/C=C/c1ccccc1,"inconclusive [inhibitor, single point]",–
CN1CCN(CC(=O)Nc2nc(-c3c[nH]c4ccccc34)cs2)CC1,"inconclusive [inhibitor, full curve]",–
COc1cccc(C(C(=O)NCC2CCCO2)N(C(=O)Cn2nnc3ccccc32)c2ccc(NC(C)=O)cc2)c1 (stereo not given),"inconclusive [inhibitor, partial curve]",–
Cc1cccc(OCCC(=O)Nc2ccc(C)c(S(=O)(=O)N3CCCCC3)c2)c1,–,inactive: -14.9%
Cc1cc(Cl)c(S(=O)(=O)Nc2ccon2)cc1OCC(=O)NC1CCCCC1,"inconclusive [inhibitor, single point]",–
COC(=O)c1ccc(Cn2nnc3ccccc32)cc1,"inconclusive [inhibitor, single point]",–
COc1ccccc1N1CCN(CCCCCCOc2ccc(F)cc2)CC1,"inconclusive [inhibitor, single point]",–
CN1CCN(S(=O)(=O)c2cccc(C(=O)NC3(C)CCS(=O)(=O)C3)c2)CC1 (stereo not given),"inconclusive [inhibitor, single point]",–
CNS(=O)(=O)c1cccc(C(=O)OCc2csc(-c3ccccc3)n2)c1,–,inactive: 30.7%

SMILES,Potency,"activity change, negative = inhibition"
O=C(CSc1nncs1)Nc1ccc(Cl)cn1,–,inactive: 17.3%
COc1ccc(C2c3c(ncn(Cc4ccco4)c3=N)Oc3ccc4ccccc4c32)cc1 (stereo not given),"inconclusive [inhibitor, single point]",–
CCCn1nc2cc(C(=O)NCc3ccc(OC)cc3)ccc2c1OCC,"inconclusive [inhibitor, partial curve, poor fit]",–
Fc1ccc2nc(N3CCCC3)sc2c1,–,inactive: 206%
COC(=O)c1cc2sccc2n1CC(=O)Nc1cc(OC)cc(OC)c1,"inconclusive [inhibitor, partial curve, poor fit]",–
O=C(NCc1ccccc1)c1cc[n+](Cc2ccccc2)cc1,"inconclusive [inhibitor, single point]",–
CCOC(=O)c1cc(C#N)c(SC(C)C(=O)NC2CCCCC2)nc1C (stereo not given),–,inactive: 1.77%
O=C(NCc1ccccc1)NC(=O)c1ccccc1F,–,inactive: 59.6%
COc1ccc(N2CCN(c3ncnc4scc(-c5ccccc5)c34)CC2)cc1,active: 9.28 µM,–
Cc1cc2c(cc1S(=O)(=O)Nc1ccc(C(C)C)cc1)OCCN2C,"inconclusive [inhibitor, single point]",–
CCOc1ccc2[nH]c(=O)c(CN(Cc3ccccc3OC)C(=O)c3ccccc3)cc2c1,"inconclusive [inhibitor, single point]",–
COc1nnc(-c2ccc(C)c(S(=O)(=O)N(C)C)c2)c2ccccc12,"inconclusive [inhibitor, single point]",–
CC(Sc1nc2cc(Cl)ccc2s1)C(=O)Nc1cccc(S(=O)(=O)N2CCOCC2)c1 (stereo not given),–,inactive: -21.8%
Cc1ccc(C(c2nnnn2C(C)(C)C)N2CCC(C)CC2)cc1 (stereo not given),"inconclusive [inhibitor, partial curve, poor fit]",–
COc1ccc(/C=C/C(=O)c2c(O)n(CCC3=CCCCC3)c(=O)[nH]c2=O)cc1OC,"inconclusive [inhibitor, partial curve, poor fit]",–
Cc1cc(C2=NNC(=Nc3ccc(S(=O)(=O)N4CCOCC4)cc3)SC2)c(C)n1CC1CCCO1 (stereo not given),"inconclusive [inhibitor, full curve]",–
O=C(c1cccc(COCC(F)(F)C(F)F)c1)N1CCN(c2ccccc2)CC1,"inconclusive [inhibitor, full curve, poor fit]",–
CCNC(=O)COC(=O)C1CCN(S(=O)(=O)c2ccc3c(c2)OCCO3)CC1,"inconclusive [inhibitor, partial curve, poor fit]",–
CCOc1cccc(C(=O)NC(c2ccccc2)C(C)C)c1 (stereo not given),"inconclusive [inhibitor, single point]",–
Cc1cccc(-n2c(C)nc3cc(C(=O)N4CCOCC4)ccc32)c1,–,inactive: 11.5%
COC(=O)c1cc(NC(=O)CSC2=NCCS2)cc(C(=O)OC)c1,–,inactive: -25%
Cc1cnc(C(=O)NCC(=O)Nc2ccccc2Br)cn1,–,inactive: 33.9%
COc1ccc(Nc2ncnc3c2cnn3Cc2ccccc2)cc1,"inconclusive [inhibitor, partial curve]",–
O=C(Nc1ncccn1)C1c2ccccc2Oc2ccccc21,–,inactive: 13.5%
CN(C)CCSc1nc(-c2ccccc2)nc2c1COC(C)(C)C2,"inconclusive [inhibitor, partial curve]",–
